Results taken from patent US8067379B2, “Sulfur compounds as inhibitors of hepatitis C virus NS3 serine protease” (Schering Corporation, priority 2004, dated 2011).

target: Recombinant heterodimeric HCV NS3/NS4A protease (strain 1a) (Hepatitis C virus genotype 1a, UniProt P27958); experiment: Spectrophotometric assay for HCV serine protease inhibitory activity (chromogenic ester substrates); assay type: biochemical; conditions: Table 3, sulfide compounds; HCV serine protease; read-out: Ki* range
From the text: Assay for HCV Protease Inhibitory Activity:
Spectrophotometric Assay: Spectrophotometric assay for the HCV serine protease can be performed on the inventive compounds by following the procedure described by R. Zhang et al, Analytical Biochemistry, 270 (1999) 268-275, the disclosure of which is incorporated herein by reference. The assay based on the proteolysis of chromogenic ester substrates is suitable for the continuous monitoring of HCV NS3 protease activity. The substrates are derived from the P side of the NS5A-NS5B junction sequence (Ac-DTEDWX(Nva), where X=A or P) whose C-terminal carboxyl groups are esterified with one of four different chromophoric alcohols (3- or 4-nitrophenol, 7-hydroxy-4-methyl-coumarin, or 4-phenylazophenol).
Protein concentrations are determined by the Biorad dye method using recombinant HCV protease standards previously quantified by amino acid analysis. Prior to assay initiation, the enzyme storage buffer (50 mM sodium phosphate pH 8.0, 300 mM NaCl, 10% glycerol, 0.05% lauryl maltoside and 10 mM DTT) is exchanged for the assay buffer (25 mM MOPS pH 6.5, 300 mM NaCl, 10% glycerol, 0.05% lauryl maltoside, 5 μM EDTA and 5 μM DTT) utilizing a Biorad Bio-Spin P-6 prepacked column.
Protease Assay: HCV protease assays are performed at 30° C. using a 200 μl reaction mix in a 96-well microtiter plate. Assay buffer conditions (25 mM MOPS pH 6.5, 300 mM NaCl, 10% glycerol, 0.05% lauryl maltoside, 5 μM EDTA and 5 μM DTT) are optimized for the NS3/NS4A heterodimer (D. L. Sali et al, ibid.)). […] Fifty μls of prewarmed protease (12 nM, 30° C.) in assay buffer, is then used to initiate the reaction (final volume 200 μl). The plates are monitored over the length of the assay (60 minutes) for change in absorbance at the appropriate wavelength (340 nm for 3-Np and HMC, 370 nm for PAP, and 400 nm for 4-Np) using a Spectromax Plus microtiter plate reader equipped with a monochrometer (acceptable results can be obtained with plate readers that utilize cutoff filters). Proteolytic cleavage of the ester linkage between the Nva and the chromophore is monitored at the appropriate wavelength against a no enzyme blank as a control for non-enzymatic hydrolysis. The evaluation of substrate kinetic parameters is performed over a 30-fold substrate concentration range (˜6-200 μM). Initial velocities are determined using linear regression and kinetic constants are obtained by fitting the data to the Michaelis-Menten equation using non-linear regression analysis (Mac Curve Fit 1.1, K. Raner). Turnover numbers (kcat) are calculated assuming the enzyme is fully active.
Evaluation of Inhibitors and Inactivators: The inhibition constants (Ki) for the competitive inhibitors Ac-D-(D-Gla)-L-l-(Cha)-C-OH (27), Ac-DTEDWA(Nva)-OH and Ac-DTEDVVP(Nva)-OH are determined experimentally at fixed concentrations of enzyme and substrate by plotting vo/vi vs. inhibitor concentration ([l]o) according to the rearranged Michaelis-Menten equation for competitive inhibition kinetics: vo/vi=1+[l]o/(Ki (1+[S]o/Km)), where vo is the uninhibited initial velocity, vi is the initial velocity in the presence of inhibitor at any given inhibitor concentration ([l]o) and [S]o is the substrate concentration used.

| Structure (SMILES) | Ki [nM] |
| --- | --- |
| CC(C)(C)[C@H](NC(=O)NC1(CSc2ccccc2)CCCCC1)C(=O)N1C[C@H]2[C@@H]([C@H]1C(=O)NC(CC1CC1)C(=O)C(N)=O)C2(C)C (stereo partly drawn) [Compound 102] | < 75 |
| CC(C)[C@@H](CSc1ccccc1)NC(=O)N[C@H](C(=O)N1C[C@H]2[C@@H]([C@H]1C(=O)NC(CC1CCC1)C(=O)C(N)=O)C2(C)C)C(C)(C)C (stereo partly drawn) [Compound 103] | 75 to 250 |
| CC(C)[C@@H](CSc1ccccc1)NC(=O)N[C@H](C(=O)N1C[C@H]2[C@@H]([C@H]1C(=O)NC(CC1CC1)C(=O)C(N)=O)C2(C)C)C(C)(C)C (stereo partly drawn) [Compound 104] | < 75 |
| C=CCNC(=O)C(=O)C(CCCC)NC(=O)[C@@H]1[C@@H]2[C@H](CN1C(=O)[C@@H](NC(=O)N[C@H](CSCc1ccccc1)C(C)C)C(C)(C)C)C2(C)C (stereo partly drawn) [Compound 105] | > 250 |
| CC(C)[C@@H](CSCc1ccccc1)NC(=O)N[C@H](C(=O)N1C[C@H]2[C@@H]([C@H]1C(=O)NC(CC1CCC1)C(=O)C(N)=O)C2(C)C)C(C)(C)C (stereo partly drawn) [Compound 106] | 75 to 250 |
| C#CCCC(NC(=O)[C@@H]1[C@@H]2[C@H](CN1C(=O)[C@@H](NC(=O)NC1(CSc3ccccc3)CCCCC1)C(C)(C)C)C2(C)C)C(=O)C(N)=O (stereo partly drawn) [Compound 107] | < 75 |
| CSCC1(NC(=O)N[C@H](C(=O)N2C[C@H]3[C@@H]([C@H]2C(=O)NC(CC2CC2)C(=O)C(N)=O)C3(C)C)C(C)(C)C)CCCCC1 (stereo partly drawn) [Compound 108] | < 75 |
| CC(C)(NC(=O)N[C@H](C(=O)N1C[C@H]2[C@@H]([C@H]1C(=O)NC(CC1CC1)C(=O)C(N)=O)C2(C)C)C(C)(C)C)SCc1ccccc1 (stereo partly drawn) [Compound 109] | < 75 |
| CC(C)(C)[C@H](NC(=O)NC1(CSc2ccccc2)CC1)C(=O)N1C[C@H]2[C@@H]([C@H]1C(=O)NC(CC1CC1)C(=O)C(N)=O)C2(C)C (stereo partly drawn) [Compound 110] | < 75 |
| C#CCCC(NC(=O)[C@@H]1[C@@H]2[C@H](CN1C(=O)[C@@H](NC(=O)NC1(CSc3ccccc3)CC1)C(C)(C)C)C2(C)C)C(=O)C(=O)NCC=C (stereo partly drawn) [Compound 111] | 75 to 250 |
| CC(C)(C)[C@H](NC(=O)NC1(CSc2ccccc2)CCCC1)C(=O)N1C[C@H]2[C@@H]([C@H]1C(=O)NC(CC1CC1)C(=O)C(N)=O)C2(C)C (stereo partly drawn) [Compound 112] | < 75 |
| CC(C)(C)[C@H](NC(=O)NC1(CCSc2ccccc2)CCCCC1)C(=O)N1C[C@H]2[C@@H]([C@H]1C(=O)NC(CC1CC1)C(=O)C(N)=O)C2(C)C (stereo partly drawn) [Compound 113] | < 75 |
| CSCC(C)(C)NC(=O)N[C@H](C(=O)N1C[C@H]2[C@@H]([C@H]1C(=O)NC(CC1CC1)C(=O)C(N)=O)C2(C)C)C(C)(C)C (stereo partly drawn) [Compound 114] | < 75 |
| CC(C)(C)[C@H](NC(=O)NC1(CSCc2ccccc2)CCCCC1)C(=O)N1C[C@H]2[C@@H]([C@H]1C(=O)NC(CC1CC1)C(=O)C(N)=O)C2(C)C (stereo partly drawn) [Compound 115] | < 75 |
| CSCCC1(NC(=O)N[C@H](C(=O)N2C[C@H]3[C@@H]([C@H]2C(=O)NC(CC2CC2)C(=O)C(N)=O)C3(C)C)C(C)(C)C)CCCCC1 (stereo partly drawn) [Compound 116] | < 75 |
| CCSCC1(NC(=O)N[C@H](C(=O)N2C[C@H]3[C@@H]([C@H]2C(=O)NC(CC2CC2)C(=O)C(N)=O)C3(C)C)C(C)(C)C)CCCCC1 (stereo partly drawn) [Compound 117] | < 75 |
| CC(C)(C)SCC1(NC(=O)N[C@H](C(=O)N2C[C@H]3[C@@H]([C@H]2C(=O)NC(CC2CC2)C(=O)C(N)=O)C3(C)C)C(C)(C)C)CCCCC1 (stereo partly drawn) [Compound 118] | < 75 |
| C=CCNC(=O)C(=O)C(CC1CC1)NC(=O)[C@@H]1[C@@H]2[C@H](CN1C(=O)[C@@H](NC(=O)NC1(CSCC)CCCCC1)C(C)(C)C)C2(C)C (stereo partly drawn) [Compound 119] | 75 to 250 |
| C=CCNC(=O)C(=O)C(CC1CC1)NC(=O)[C@@H]1[C@@H]2[C@H](CN1C(=O)[C@@H](NC(=O)NC1(CSC(C)(C)C)CCCCC1)C(C)(C)C)C2(C)C (stereo partly drawn) [Compound 120] | > 250 |
| C#CCCC(NC(=O)[C@@H]1[C@@H]2[C@H](CN1C(=O)[C@@H](NC(=O)NC1(CSCC)CCCCC1)C(C)(C)C)C2(C)C)C(=O)C(=O)NCC=C (stereo partly drawn) [Compound 121] | < 75 |
| C#CCCC(NC(=O)[C@@H]1[C@@H]2[C@H](CN1C(=O)[C@@H](NC(=O)NC1(CSC(C)(C)C)CCCCC1)C(C)(C)C)C2(C)C)C(=O)C(=O)NCC=C (stereo partly drawn) [Compound 122] | < 75 |
| CC(C)(C)[C@H](NC(=O)NC1(CSCc2ccco2)CCCCC1)C(=O)N1C[C@H]2[C@@H]([C@H]1C(=O)NC(CC1CC1)C(=O)C(N)=O)C2(C)C (stereo partly drawn) [Compound 123] | < 75 |
| Cc1occc1SCC1(NC(=O)N[C@H](C(=O)N2C[C@H]3[C@@H]([C@H]2C(=O)NC(CC2CC2)C(=O)C(N)=O)C3(C)C)C(C)(C)C)CCCCC1 (stereo partly drawn) [Compound 124] | 75 to 250 |
| C=CCNC(=O)C(=O)C(CCC)NC(=O)[C@@H]1[C@@H]2[C@H](CN1C(=O)[C@@H](NC(=O)NC1(CSCc3ccco3)CCCCC1)C(C)(C)C)C2(C)C (stereo partly drawn) [Compound 125] | 75 to 250 |
| C#CCCC(NC(=O)[C@@H]1[C@@H]2[C@H](CN1C(=O)[C@@H](NC(=O)NC1(CSCc3ccco3)CCCCC1)C(C)(C)C)C2(C)C)C(=O)C(=O)NCC=C (stereo partly drawn) [Compound 126] | < 75 |

same assay, conditions: Table 3A; class symbols; read-out: Ki* Range

| Structure (SMILES) | Ki [nM] |
| --- | --- |
| C=CCNC(=O)C(=O)[C@H](CC1CC1)NC(=O)[C@@H]1[C@@H]2[C@H](CN1C(=O)[C@@H](NC(=O)NC1(C3CCCCS3(=O)=O)CCCCC1)C1(C)CCCCC1)C2(C)C (single isomer, unassigned) [Compound 792] | < 75 |
| C=CCNC(=O)C(=O)C(CCCCF)NC(=O)[C@@H]1[C@@H]2[C@H](CN1C(=O)[C@@H](NC(=O)NC1(CS(=O)(=O)C(C)(C)C)CCCCC1)C1(C)CCCCC1)C2(C)C (stereo in doubt) [Compound 455] | < 75 |
| C=CCNC(=O)C(=O)C(CCCC(F)F)NC(=O)[C@@H]1[C@@H]2[C@H](CN1C(=O)[C@@H](NC(=O)NC1(CS(=O)(=O)C(C)(C)C)CCCCC1)C1(C)CCCCC1)C2(C)C (stereo in doubt) [Compound 458] | < 75 |
| C=CCNC(=O)C(=O)C(CC1CC1)NC(=O)[C@@H]1[C@@H]2[C@H](CN1C(=O)[C@@H](NC(=O)N[C@]1(CS(=O)(=O)C(C)(C)C)CC[C@H](C(C)C)CC1)C1(C)CCCCC1)C2(C)C (stereo in doubt) [Compound 621] | > 250 |

same assay, conditions: Table 5; read-out: Ki*

| Structure (SMILES) | Ki [nM] |
| --- | --- |
| C=CCNC(=O)C(=O)C(CC1CC1)NC(=O)[C@@H]1C2[C@H](CN1C(=O)[C@@H](NC(=O)NC1(CS(=O)(=O)C(C)(C)C)CCCCC1)C1(C)CCCCC1)C2(C)C (stereo partly drawn) | 10 |
| C=CCNC(=O)C(=O)C(CC1CC1)NC(=O)[C@@H]1C2[C@H](CN1C(=O)[C@@H](NC(=O)NC1(CS(=O)(=O)C(C)(C)C)CCCCC1)C(C)(C)C)C2(C)C (stereo partly drawn) | 14 |
| C=CCNC(=O)C(=O)C(CC1CC1)NC(=O)[C@@H]1C2[C@H](CN1C(=O)[C@@H](NC(=O)NC1(CS(=O)(=O)C(C)(C)C)CCCCC1)C1CCCCC1)C2(C)C (stereo partly drawn) | 4.1 |
| C=CCNC(=O)C(=O)C(CC1CC1)NC(=O)[C@@H]1C2[C@H](CN1C(=O)[C@@H](NC(=O)NC1(CS(=O)(=O)C(C)(C)CC)CCCCC1)C1(C)CCCCC1)C2(C)C (stereo partly drawn) | 9 |
| C=CCNC(=O)C(=O)C(CC1CC1)NC(=O)[C@@H]1C2[C@H](CN1C(=O)[C@@H](NC(=O)NC1(CS(=O)(=O)C(C)(C)CC)CCCCC1)C(C)(C)C)C2(C)C (stereo partly drawn) | 14 |
| C=CCNC(=O)C(=O)C(CCCC)NC(=O)[C@@H]1C2[C@H](CN1C(=O)[C@@H](NC(=O)NC1(CS(=O)(=O)C(C)(C)C)CCCCC1)C(C)(C)C)C2(C)C (stereo partly drawn) | 11 |
| C#CCCC(NC(=O)[C@@H]1C2[C@H](CN1C(=O)[C@@H](NC(=O)NC1(CS(=O)(=O)C(C)(C)C)CCCCC1)C1(C)CCCCC1)C2(C)C)C(=O)C(=O)NCCC (stereo partly drawn) | 4 |
| C#CCCC(NC(=O)[C@@H]1C2[C@H](CN1C(=O)[C@@H](NC(=O)NC1(CS(=O)(=O)C(C)(C)C)CCCCC1)C1(C)CCCCC1)C2(C)C)C(=O)C(=O)NC1CC1 (stereo partly drawn) | 6 |
| CCCC[C@H](NC(=O)[C@@H]1C2[C@H](CN1C(=O)[C@@H](NC(=O)NC1(CS(=O)(=O)C(C)(C)C)CCCCC1)C1(C)CCCCC1)C2(C)C)C(=O)C(=O)NC1CC1 (stereo partly drawn) | 5 |
| CC1([C@H](NC(=O)NC2(CS(=O)(=O)C(C)(C)C)CCCCC2)C(=O)N2C[C@H]3C([C@H]2C(=O)N[C@@H](CCC2CC2)C(=O)C(=O)NC2CC2)C3(C)C)CCCCC1 (stereo partly drawn) | 3 |
